Whole data set: some 33,000 sequences, median “E-score (-0.5 to 0.5)” near -0.054, cut for the highest 2% near 0.35. The list shows a part of the results.
What follows are sequences tested against T1, Stb5 (UniProt P38699) (assay: PBM E-score (8-mer binding enrichment) (E-score (-0.5 to 0.5)); higher = stronger / more preferred TF binding; most listed sequences are background and not binding sites). Conditions: protein concentration: 200 nM; construct: GST-full length.
T1 sequence: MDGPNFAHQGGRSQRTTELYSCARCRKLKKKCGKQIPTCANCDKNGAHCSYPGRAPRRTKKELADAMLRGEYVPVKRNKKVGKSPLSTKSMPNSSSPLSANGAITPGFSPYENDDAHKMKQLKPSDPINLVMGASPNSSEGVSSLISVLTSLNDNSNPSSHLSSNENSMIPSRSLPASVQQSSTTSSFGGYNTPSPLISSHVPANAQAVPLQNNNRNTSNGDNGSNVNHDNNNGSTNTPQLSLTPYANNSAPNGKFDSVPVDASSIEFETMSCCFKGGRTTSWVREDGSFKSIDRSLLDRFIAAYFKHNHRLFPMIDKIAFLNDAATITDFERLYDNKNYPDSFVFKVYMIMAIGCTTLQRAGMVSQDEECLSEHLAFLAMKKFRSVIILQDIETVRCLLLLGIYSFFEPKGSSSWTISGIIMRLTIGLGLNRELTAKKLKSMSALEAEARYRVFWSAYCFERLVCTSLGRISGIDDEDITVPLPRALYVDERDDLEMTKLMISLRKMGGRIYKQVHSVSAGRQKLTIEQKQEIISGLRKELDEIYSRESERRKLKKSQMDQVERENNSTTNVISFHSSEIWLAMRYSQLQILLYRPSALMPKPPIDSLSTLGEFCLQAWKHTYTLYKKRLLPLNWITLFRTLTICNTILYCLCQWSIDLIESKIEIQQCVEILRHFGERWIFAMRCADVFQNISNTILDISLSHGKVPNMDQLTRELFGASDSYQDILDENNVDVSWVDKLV
Method in brief: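 For each ungapped eight-base word taken together with its reverse complement, the Universal PBM Analysis Suite assigned an E-score. Binding data came from GST-tagged yeast transcription factors, applied at about 100-200 nM, on universal all-10-mer Agilent arrays made double-stranded by primer extension. Fluorescent anti-GST marked bound protein, and scans were normalised with masliner.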

Sequence | PBM E-score
ACCCGGCT | 0.227
TCGGCACA | 0.253
ATCATCCG | 0.142
CCGAGTTA | 0.129
CTTCGTGA | -0.0544
ATGGGTGC | -0.0771
AGGAGTCC | -0.092
AAACACTC | -0.0554
AGGATCTC | -0.211
AGCACACA | -0.343
CTGCACAA | -0.209
CAACCGAC | 0.148
CTGATATC | 0.211
AATCTAAA | -0.0331
AGATGAGA | -0.167
ACCCTGAT | 0.0149
ACAGAACT | -0.198
AACGATGG | -0.182
AAGTCTAG | -0.00941
ACCATGAC | 0.0247
ATTTGACC | 0.116
ACACAGTA | -0.234
AAGACAAC | 0.012
GCAAGGAC | 0.0542
GCACCTGA | -0.172

Sequence | PBM E-score
GCGGAAAA | 0.155
GTGCACGA | -0.24
CCTTCTCG | -0.259
CAGAGAGG | -0.221
GGAGTGAC | 0.202
ATGATATG | 0.0664
ACTTTGAA | 0.029
GTCGAACA | -0.155
CAGTAGTC | -0.205
CACCGCTC | 0.402
ATAAGGGC | 0.0814
ATCACCAC | 0.0837
AGGCAAAC | -0.233
ACTTAGCG | -0.0431
CCGGCACG | 0.256
GGGTCCCA | -0.0448
CTCGAGGC | -0.269
AAAGCTAG | -0.283
CGGCTAAG | 0.0183
ACGAAAAA | -0.264
CCTCTATA | -0.232
CCCCGCAG | 0.312
CGCGCGTC | 0.179
CGCAGCGA | 0.0248
ATATGAGG | -0.196

Sequence | PBM E-score
ATTGTCGC | -0.0867
GAAACGGA | 0.193
GGCCACAA | -0.0969
CGAAGCCC | 0.12
AAGCAGTG | -0.121
CGCAGGCC | 0.0318
CGTGTAGA | -0.0723
CACGTCAC | -0.17
GGGATCCA | 0.117
ATATAACG | 0.00457
CGTACGGC | 0.117
CAATATAA | 0.162
TGCGAGCA | -0.252
ATTGAACA | -9e-05
ATACCCAG | -0.178
CCCGAGAA | 0.0753
AGGTGACG | 0.0193
AAGAGTCG | 0.0514
ACGGCTAG | -0.0329
GGTGACTA | 0.172
AACCCATT | -0.119
CCTGATGC | -0.0323
ACTGTATG | -0.0542
CGGCCAGA | 0.144
CTGAACAA | -0.0474

Sequence | PBM E-score
CTTAGATC | -0.0824
CGAAATCG | 0.239
AAGGGTAA | -0.263
CCAGAGGA | -0.201
AAATCAGG | -0.198
ACACGAGG | -0.192
CCGAACGC | 0.217
GATGGTCA | -0.0843
TGCAAGAA | -0.135
CCTCCGAG | 0.0853
GGATCGGA | 0.307
GAATGGAA | -0.19
ACTGCTCC | -0.124
AGTCGGGC | 0.312
GGAGCTGA | -0.109
CTTCCTCC | -0.109
AGGTTCAG | -0.0998
CTTAAAAA | -0.0655
AACGCGTG | -0.227
CTAAGCTA | -0.0687
AAGTCACC | -0.00044
AGAATTAT | 0.142
ACAGCTGA | -0.202
ACGTCGGA | 0.264
CGCTCCCG | 0.0407

Sequence | PBM E-score
CTGTGCCA | -0.142
CATGGACG | -0.0383
CGCGCCGC | 0.325
ACCAACCC | -0.0884
GAAACGAC | -0.0671
ACCCCGTA | 0.301
AAAAAAAC | 0.0636
ACCTAACA | 0.0355
CAAGGACG | -0.113
ACTTGAGG | -0.169
GCTGCACA | -0.0762
AGACAGTG | -0.232
AGAATTCT | 0.0541
CCTGTCGC | -0.0563
ATGTCTGG | -0.188
AGGGAATG | -0.156
AGACTTTA | -0.0944
AGCACAGA | -0.0721
GAAATCTA | -0.067
GAATAGCA | -0.0815
GTAGTTTA | 0.0145
CCTTTTTC | -0.0307
CTTGAGGC | -0.0475
AACAGTAC | -0.17
ACGCTGGC | -0.0211

Sequence | PBM E-score
AAGTACGC | 0.007
TTATGCAA | -0.166
ATTGTACA | -0.108
ACTGAACG | -0.162
GTGACAGA | -0.0308
CGCCGGCA | 0.354
CAAAGGCC | 0.272
ACGGGCCA | 0.169
GACTGTGC | -0.163
CCCCTGCG | -0.0518
CCGACCCA | 0.369
AGCCTTTC | -0.189
GAAGTCAA | -0.164
ATTCAACA | -0.0155
AATCCTTA | -0.199
CCTTTAAC | 0.0973
CCCCCCCG | -0.255
ATTCGCGA | -0.117
ATAGTCAT | -0.164
AAAAGCCT | -0.122
CAGATATA | -0.0791
CACGCTCC | -0.00495
CGAATCCG | -0.0225
ACACAAAG | -0.28
CCGCACAC | 0.247

Sequence | PBM E-score
CAAATCAA | -0.174
CAAGTATG | -0.101
TCGAGCGA | -0.179
CCTGATTA | -0.0802
AGATCGGA | 0.335
ACAGTACA | -0.171
AATTGTCC | 0.188
CCCGGGCC | 0.253
ATGTGGCG | 0.211
GTGTATAA | -0.0512
GCCCTCGC | 0.0349
CCGACTGA | 0.248
AATAGGGT | -0.175
CCGACGCC | 0.315
CACACTCA | -0.265
AGCCTCCC | -0.141
ATACACTA | -0.0907
TAAGCACA | -0.0336
GTGAGGGA | -0.0417
CGGGTCCC | -0.0158
GTCCTCAA | -0.137
AATTCTGA | -0.0372
